Among all 310,000 compounds or so, about 14,000 (4.5%) showed an effect of 50% or more. Effects have a minus sign here. The list shows a part of the results.
target: human ether-à-go-go-related gene (hERG) potassium channel (human, UniProt Q12809); test: primary screen, population patch clamp on CHO cells stably expressing hERG
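Note: peak tail current of the secondary pulse compared with the same well before compound.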

Sequence of human ether-à-go-go-related gene (hERG) potassium channel (Q12809 whole entry, looked up): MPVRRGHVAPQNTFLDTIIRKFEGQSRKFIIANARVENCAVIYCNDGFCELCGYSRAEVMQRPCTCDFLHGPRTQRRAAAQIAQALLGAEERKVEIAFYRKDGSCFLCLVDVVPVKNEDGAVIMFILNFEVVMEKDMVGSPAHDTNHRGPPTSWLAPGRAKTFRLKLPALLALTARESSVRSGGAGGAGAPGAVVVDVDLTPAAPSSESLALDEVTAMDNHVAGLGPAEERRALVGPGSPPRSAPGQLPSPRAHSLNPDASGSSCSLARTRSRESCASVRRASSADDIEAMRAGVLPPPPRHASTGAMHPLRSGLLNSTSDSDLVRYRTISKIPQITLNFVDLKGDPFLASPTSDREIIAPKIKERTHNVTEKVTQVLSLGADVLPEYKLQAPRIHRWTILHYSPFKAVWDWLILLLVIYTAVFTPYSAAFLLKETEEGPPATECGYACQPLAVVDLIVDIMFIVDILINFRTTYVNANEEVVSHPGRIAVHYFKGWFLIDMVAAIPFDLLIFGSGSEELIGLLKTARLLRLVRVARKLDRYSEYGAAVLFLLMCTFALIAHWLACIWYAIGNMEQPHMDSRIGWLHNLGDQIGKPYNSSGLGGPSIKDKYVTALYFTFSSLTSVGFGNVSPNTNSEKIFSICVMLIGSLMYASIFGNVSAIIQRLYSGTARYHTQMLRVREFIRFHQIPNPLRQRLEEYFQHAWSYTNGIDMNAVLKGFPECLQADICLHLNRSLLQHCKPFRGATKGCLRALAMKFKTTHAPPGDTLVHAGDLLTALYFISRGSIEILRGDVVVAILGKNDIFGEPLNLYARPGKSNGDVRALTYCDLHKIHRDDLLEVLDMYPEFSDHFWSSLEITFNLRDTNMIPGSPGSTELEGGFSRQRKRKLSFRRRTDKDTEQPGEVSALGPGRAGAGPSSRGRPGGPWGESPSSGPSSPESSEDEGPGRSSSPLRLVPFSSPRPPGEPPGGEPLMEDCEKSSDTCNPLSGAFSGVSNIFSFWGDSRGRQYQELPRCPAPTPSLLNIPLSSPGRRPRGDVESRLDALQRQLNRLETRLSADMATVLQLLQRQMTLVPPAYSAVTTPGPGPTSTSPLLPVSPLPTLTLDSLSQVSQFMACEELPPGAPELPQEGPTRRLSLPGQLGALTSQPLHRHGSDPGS

First: Cc1cccc(N(CC(=O)NC2CCCCC2)C(=O)CCC(=O)Nc2nccs2)c1
Second: CC(=O)c1cccc(-n2nnnc2SCC(=O)NNC(=O)C2CCCCC2)c1
The “hERG current change (%, negative = inhibition) at 10uM” value of the first is higher: 21.3% for the first, 6.96% for the second.

Compared with `COc1ccc(CN2CCN(CCCc3ccccc3)CC2)c(OC)c1`, `COc1ccc(CCNc2c(N)n(Cc3ccccc3)c(=O)[nH]c2=O)cc1OC` is higher in “hERG current change (%, negative = inhibition) at 10uM” value: -76.6% for the first, -30.8% for the second.

First: CCN(C1CCCCC1)S(=O)(=O)c1c(C)n(C)c(=O)n(C)c1=O
Second: CN(CC(=O)Nc1ccc(F)c(F)c1F)C1CCCCC1
The “hERG current change (%, negative = inhibition) at 10uM” value of the first is higher: -1.47% for the first, -52.5% for the second.

First: COc1ccc(-c2cc3c(=O)n(CC(=O)NCCCc4ccccc4)ncn3n2)cc1
Second: CCOc1c2ccc(C(=O)NCCCCc3ccccc3)cc2nn1C
The “hERG current change (%, negative = inhibition) at 10uM” value of the first is higher: 7.35% for the first, -14.5% for the second.

Compared with `COc1ccc(N(CC(=O)Nc2ccc(C(C)C)cc2)S(=O)(=O)c2c(C)noc2C)cc1`, `COc1ccc(NS(=O)(=O)c2ccc(C)c(C(=O)N(C)Cc3ccc(C)cc3)c2)cc1` is lower in “hERG current change (%, negative = inhibition) at 10uM” value: 1.83% for the first, -30.2% for the second.

Going from `CCc1ccccc1NC(=O)c1cc(=O)c2ccccc2o1` to `O=C(CCCCCn1nnc2ccccc2c1=O)Nc1ccccc1Cl`, the “hERG current change (%, negative = inhibition) at 10uM” value rises from -1.16% to 26.8%.

Going from `O=C(CN1CCC(O)(c2ccc3c(c2)OCO3)CC1)OC1CCCCC1` to `COc1cccc(C2(O)CCN(C(=O)c3cccs3)CC2)c1`, the “hERG current change (%, negative = inhibition) at 10uM” value rises from -5.98% to -1.99%.

Going from `O=C1NC(=O)c2cc(Br)cc3cccc1c23` to `Cc1nn(-c2cccc(C(F)(F)F)c2)c(=O)c2noc(C)c12`, the “hERG current change (%, negative = inhibition) at 10uM” value falls from 13.6% to -2.01%.

Going from `CC1CCN(c2cc(N3CCN(C(=O)c4ccc(F)c(F)c4)CC3)c([N+](=O)[O-])cc2F)CC1` to `CCC(=O)c1ccc(N2CCN(C(=O)c3cccs3)CC2)c(F)c1`, the “hERG current change (%, negative = inhibition) at 10uM” value falls from -5.86% to -51.6%.

Going from `O=C(Nc1ccccc1)Nc1nnc(-c2ccccc2)o1` to `O=C(NNC(=O)c1ccncc1)Nc1ccccc1`, the “hERG current change (%, negative = inhibition) at 10uM” value rises from 5.53% to 8.3%.

Going from `Cl.c1ccc(CCn2nnnc2CN2CCCc3ccccc32)cc1` to `O=C(O)C(=O)O.OCc1ccccc1OCCCN1CCC(Cc2ccccc2)CC1`, the “hERG current change (%, negative = inhibition) at 10uM” value falls from -14.7% to -75%.

First: Cc1cc(N/N=C/c2cccc(F)c2)nc(NCc2ccccc2)n1
Second: O=C(NCc1ccccc1)C(c1cccnc1)N(C(=O)c1ccccn1)c1ccccc1F (stereo not drawn)
The “hERG current change (%, negative = inhibition) at 10uM” value of the first is lower: -21.9% for the first, 9.22% for the second.

First: CC1(C)C2CC=C(/C=N/NC(=O)c3ccc(Cl)cc3)C1C2 (stereo not drawn)
Second: O=C(CCNC(=O)c1ccc(Cl)cc1)NCCC1=CCCCC1
The “hERG current change (%, negative = inhibition) at 10uM” value of the first is higher: 1.61% for the first, -7.49% for the second.

Going from `Cc1ccc(S(=O)(=O)Oc2ccc(C3C4=C(CCCC4=O)N(CCC(=O)O)C4=C3C(=O)CCC4)cc2Cl)cc1` to `CC(=O)N1CCc2cc(S(=O)(=O)CCC(=O)N3CCN(c4cc(C)ccc4C)CC3)ccc21`, the “hERG current change (%, negative = inhibition) at 10uM” value falls from 0.796% to -17.7%.

First: CC1=CC(C)(C)NC(=S)N1c1ccc(C)c(C)c1
Second: CCc1ccc(/C=C/C(=O)c2c(C)cc(C)[nH]c2=O)cc1
The “hERG current change (%, negative = inhibition) at 10uM” value of the first is higher: 13.3% for the first, 4.8% for the second.

First: O=C(COC(=O)/C=C/c1ccc(Br)o1)Nc1ccc2[nH]c(=O)[nH]c2c1
Second: COc1ccc(NC(=O)COc2cccc3c2OC(C)(C)C3)cc1OC
The “hERG current change (%, negative = inhibition) at 10uM” value of the first is lower: -8.22% for the first, 6.43% for the second.

Compared with `COC(=O)C1=C(c2ccc(-c3ccccc3)c(F)c2)C[C@@H]2CC[C@H]1N2C(=O)NC(C)C`, `CC(C)NC(=O)CSc1nc(N)c(NC(=O)c2ccccc2F)c(=O)[nH]1` is higher in “hERG current change (%, negative = inhibition) at 10uM” value: -16.8% for the first, 17.1% for the second.

First: CC(Oc1ccc2c3c(c(=O)oc2c1)CCCC3)C(=O)NC1CC(C)(C)NC(C)(C)C1 (stereo not drawn)
Second: CC(C)CC(=O)Nc1sc2c(c1C#N)CC(C)(C)NC2(C)C
The “hERG current change (%, negative = inhibition) at 10uM” value of the first is higher: 5.14% for the first, -12.7% for the second.

Compared with `CC1CC(C)CN(CCC(=O)Nc2ccc3c(c2)CCC3)C1.Cl` (stereo not drawn), `CC(=O)Nc1ccc(NC(=O)CSc2nnc(C3CC3)n2C)cc1` is higher in “hERG current change (%, negative = inhibition) at 10uM” value: -43.6% for the first, 3.93% for the second.

Compared with `COc1ccc(Cl)cc1S(=O)(=O)NC(C)C(=O)NCc1cccnc1` (stereo not drawn), `O=C(NCc1cccnc1)c1cccc(C(F)(F)F)c1` is higher in “hERG current change (%, negative = inhibition) at 10uM” value: -18.5% for the first, 12.9% for the second.

Compared with `Cc1cccn2c(=O)c3cc(C(=O)NC4CCCC4)c(=N)n(C4CCCCC4)c3nc12`, `CCN1CCN(c2ccc(S(=O)(=O)N3CCCCC3)cc2NC(=O)c2cccc(C)c2[N+](=O)[O-])CC1` is higher in “hERG current change (%, negative = inhibition) at 10uM” value: -80.7% for the first, -28.8% for the second.

Going from `COc1ccc(C(=O)Cn2c(=O)oc3ccc(C)cc32)cc1` to `COc1ccc(NC(=O)C(c2ccccn2)N(C(C)=O)c2ccc(C)cc2)cc1` (stereo not drawn), the “hERG current change (%, negative = inhibition) at 10uM” value falls from 4.78% to 4.75%.

Going from `O=C(CC1SCCNC1=O)Nc1ccc(Cl)cc1` (stereo not drawn) to `O=C(CN1C(=O)CCSc2ccccc21)Nc1ccc(F)cc1`, the “hERG current change (%, negative = inhibition) at 10uM” value falls from 11.3% to -15.7%.

Going from `CC(C)NC(=O)COC(=O)c1cncc(Br)c1` to `C/C(N)=C(/C#N)C(=O)COC(=O)c1ccc(C#N)cc1`, the “hERG current change (%, negative = inhibition) at 10uM” value falls from 15.8% to -6.61%.

Going from `O=C(CCCCl)NC1=NN(c2ccccc2)C(=O)C1` to `O=C(Cn1c(NCCCCl)nc2ccccc21)c1ccccc1.[Cl-]`, the “hERG current change (%, negative = inhibition) at 10uM” value falls from -4.99% to -31.1%.

Going from `O=C(O)C(=O)O.OC(CNCCc1ccc(Cl)cc1Cl)COc1ccccc1` (stereo not drawn) to `Cc1cc2ccccc2n1CCNC(=O)COc1ccccc1`, the “hERG current change (%, negative = inhibition) at 10uM” value falls from -25.7% to -33.2%.

First: Cc1nnsc1C(=O)N/N=C/c1ccccc1
Second: COCCOC(=O)c1c(NC(=O)CSc2cccc[n+]2[O-])sc(C(N)=O)c1C
The “hERG current change (%, negative = inhibition) at 10uM” value of the first is lower: 4.89% for the first, 72% for the second.

First: CCN(CC)CCCNC(=S)N1CCN(c2nc3ccccc3n2CC)CC1
Second: CCOC(=O)C1CCN(C(=O)Cn2nc(C)c3c(C)n(-c4ccccc4)nc3c2=O)CC1
The “hERG current change (%, negative = inhibition) at 10uM” value of the first is higher: -5.2% for the first, -13.9% for the second.

Going from `COCc1cc(=O)n2[nH]c(-c3cccs3)cc2n1` to `CCNc1sc(C(=O)c2cccs2)c(N)c1C#N`, the “hERG current change (%, negative = inhibition) at 10uM” value rises from -2.66% to 9.68%.

Going from `COc1ccc(C2=CC(c3cc(OC)c(OC)c(OC)c3)NC(=S)N2)cc1` (stereo not drawn) to `COc1cc(NC(=O)C2CCN(S(=O)(=O)c3cccnc3)CC2)cc(OC)c1OC`, the “hERG current change (%, negative = inhibition) at 10uM” value falls from 4.19% to -17.1%.

Going from `Cc1sc(NC(=O)C2CCCCC2C(=O)O)c(C(N)=O)c1-c1ccc(C(C)(C)C)cc1` (stereo not drawn) to `CCOC(=O)Cc1ccc(NC(=O)c2ccc(C(C)(C)C)cc2)cc1`, the “hERG current change (%, negative = inhibition) at 10uM” value falls from -3.15% to -8.19%.

First: O=C(Nc1ccccc1Cl)N1CCSc2ccccc21
Second: CC(=O)c1cn(CCCOc2ccccc2)c2ccccc12
The “hERG current change (%, negative = inhibition) at 10uM” value of the first is lower: -14.4% for the first, -6.84% for the second.

First: Cn1nc(C(=O)NNc2c(F)c(F)cc(F)c2F)c2ccccc2c1=O
Second: CCOC(=O)c1nn(-c2ccccc2C)c2nc(Nc3ccccc3)cc(=O)n12
The “hERG current change (%, negative = inhibition) at 10uM” value of the first is higher: -6.18% for the first, -29.9% for the second.

First: O=C(NCCCN1CCOCC1)C1(c2ccccc2)CCOCC1
Second: O=C(CC1C(=O)NCCN1CC1CCCCC1)NCCCN1CCOCC1 (stereo not drawn)
The “hERG current change (%, negative = inhibition) at 10uM” value of the first is lower: 19.7% for the first, 25.9% for the second.

First: O=C1CC(c2ccccc2)CC(O)=C1C=NCCN1CCN(C(=O)Cc2ccccc2)CC1 (stereo not drawn)
Second: CCCn1c(NCc2ccccc2NS(=O)(=O)c2ccc(C)cc2)nc2ccccc21
The “hERG current change (%, negative = inhibition) at 10uM” value of the first is lower: -53% for the first, 6.84% for the second.

First: Cc1noc(NS(=O)(=O)c2ccc(N/C=C\C(=O)c3cccc4ccccc34)cc2)c1C
Second: O=C(NCc1ccco1)c1ccc(S(=O)(=O)c2cccc(S(=O)(=O)N3CCOCC3)c2)cc1
The “hERG current change (%, negative = inhibition) at 10uM” value of the first is lower: -8.77% for the first, 2.58% for the second.

Going from `Cc1cc(N2CCC(C(=O)NCC3CC3)CC2)nc(-c2ccccc2)n1` to `CCOc1cccc(C(=O)N2CCCCC2c2cccnc2)c1` (stereo not drawn), the “hERG current change (%, negative = inhibition) at 10uM” value rises from -73.1% to -11.2%.

First: Cc1[nH]c2ccccc2c1C(=O)CSCC(=O)O
Second: CCCOc1cccc(C(=O)O)c1
The “hERG current change (%, negative = inhibition) at 10uM” value of the first is higher: -1.3% for the first, -3.68% for the second.

First: Cc1ccc2[nH]c(=O)c(CN(Cc3ccc4c(c3)OCO4)Cc3nnnn3Cc3ccco3)cc2c1
Second: N#C/C(=C/c1ccc2c(c1)OCO2)C(=O)NCCc1c[nH]c2ccccc12
The “hERG current change (%, negative = inhibition) at 10uM” value of the first is lower: -5.61% for the first, 8.49% for the second.

Compared with `CCC(C)(C(=O)NC1CCCC1)N(Cc1cccs1)C(C)=O` (stereo not drawn), `COc1ccc(CNC(=O)CC23CC4CC(CC(C4)C2)C3)cc1` is higher in “hERG current change (%, negative = inhibition) at 10uM” value: 9.95% for the first, 20.4% for the second.

Compared with `COc1ccc(N2CCN(CCC(N)=O)CC2)cc1`, `COc1ccc(/C=N/Nc2ccc(C(F)(F)F)cc2[N+](=O)[O-])cc1` is higher in “hERG current change (%, negative = inhibition) at 10uM” value: 3.39% for the first, 5.35% for the second.

Going from `Cc1ccc(OCc2cc(C(=O)NC(C)Cc3cnccn3)no2)cc1C` (stereo not drawn) to `Cc1ccc(NCc2ccccc2O)c(C)c1`, the “hERG current change (%, negative = inhibition) at 10uM” value rises from 0.149% to 24.8%.

First: Cc1nn(C)c(C)c1Sc1ccc(Br)cc1
Second: COc1nc2ccccc2nc1OC
The “hERG current change (%, negative = inhibition) at 10uM” value of the first is higher: 7.38% for the first, 3.43% for the second.

First: CCCC(=O)NCCCCNC(=O)CCC
Second: CN(C)/C=C/C(=O)c1ccccc1F
The “hERG current change (%, negative = inhibition) at 10uM” value of the first is higher: 5.91% for the first, 0.616% for the second.

Going from `COc1ccc(-c2[nH]ncc2C=O)cc1OC` to `Nc1ccc2nc(-c3cccnc3)[nH]c2c1`, the “hERG current change (%, negative = inhibition) at 10uM” value rises from -24.8% to 4.72%.

Source: PMC4336329 (PLoS ONE, 2015)
